Experimental data as given in PMC5540273 (PLoS ONE, 2017).
This list holds what a sample rich in strong results left over.

Legend:
Settings in all cases: concentration: 1 μM,replicates: in singlicate; n = 1
[1] = tested on: FER
[2] = tested on: FES
[3] = tested on: FGFR1
[4] = tested on: FGFR2
[5] = tested on: FGFR3
[6] = tested on: FGFR4
[7] = tested on: FGR
[8] = tested on: FLT1
[9] = tested on: FLT3-autoinhibited
[10] = tested on: FLT3
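Note: KINOMEscan kinase panel screen.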

Compound | %Inh [1] | %Inh [2] | %Inh [3] | %Inh [4] | %Inh [5] | %Inh [6] | %Inh [7] | %Inh [8] | %Inh [9] | %Inh [10]
O=C1NC(=O)C(c2ccc(Cl)cc2)=C1Nc1cccc(C(=O)O)c1 [SB-360737] | 5% | 0% | 0% | 0% | 13% | 13% | 8% | 22% | 0% | 0%
O=C1NC(=O)c2c1c(-c1ccccc1)cc1[nH]c3ccc(O)cc3c21 | 0% | 11% | 25% | 23% | 15% | 13% | 31% | 2% | 44% | 67%
O=C1NC(=O)C(c2ccccc2Cl)=C1Nc1ccccc1 [SB-376715] | 7% | 0% | 0% | 0% | 22% | 8% | 0% | 10% | 0% | 6%
O=C(O)c1ccc(-c2nc(-c3ccc(F)cc3)c(-c3ccncc3)[nH]2)cc1 [SB-202620] | 14% | 17% | 24% | 0% | 0% | 4% | 22% | 0% | 0% | 73%
O=C1NC(=O)C(c2ccc(Cl)cc2)=C1Nc1cccc(O)c1 [SB-333613] | 0% | 0% | 8% | 17% | 7% | 3% | 0% | 0% | 3% | 0%
CSc1ccc(NC2=C(c3cccc(Cl)c3)C(=O)NC2=O)cc1 [SB-341528] | 0% | 0% | 0% | 0% | 0% | 10% | 0% | 6% | 0% | 0%
O=C1NC(=O)C(c2ccc(Cl)cc2)=C1Nc1ccccc1 [SB-317661] | 0% | 0% | 0% | 0% | 0% | 0% | 0% | 0% | 0% | 5%
COc1cccc(C2=C(Nc3ccc(SC)cc3)C(=O)NC2=O)c1 [SB-331032] | 20% | 8% | 8% | 0% | 0% | 0% | 6% | 0% | 0% | 16%
